Structures can show the parent of a compound that is named as a salt.

Among the data in patent US11618753B2 (priority 2018, dated 2023) are IC50 values, retold here.

This experiment relates to MLKL phosphorylation, HT29-L23 human colorectal adenocarcinoma cells. The experiment is described as follows: cells. Conditions: read-out: pMLKL HCS Cell Assay (IC50, uM).
Consider `Nc1ncnn2c(-c3ccc(C(F)(F)F)c(C(=O)N[C@@H]4CN(C(=O)C5CC(F)C5)C[C@@H]4F)c3)cc(C(F)(F)F)c12` (stereo partly drawn) [Example 893, 5-[4-amino-5-(trifluoromethyl)pyrrolo[2,1-f][1,2,4]triazin-7-yl]-N-[(3R,4S)-4-fluoro-1-(3-fluorocyclobutanecarbonyl)pyrrolidin-3-yl]-2-(trifluoromethyl)benzamide], for which the IC50 is 0.017 µM.
The same measure for `COc1ncc(-c2cc(C(F)(F)F)c3c(N)ncnn23)cc1C(=O)NC1CN(Cc2cccc(C)c2)CC1F` (racemic) [Example 237, 5-[4-amino-5-(trifluoromethyl)pyrrolo[2,1-f][1,2,4]triazin-7-yl]-N-{4-fluoro-1-[(3-methylphenyl)methyl]pyrrolidin-3-yl}-2-methoxypyridine-3-carboxamide]: 0.039 µM; for `CCC(O)(C(=O)N1C[C@H](F)[C@H](NC(=O)c2ccc(F)c(-c3cc(C(F)(F)F)c4c(N)ncnn34)c2)C1)C(F)(F)F` (stereo partly drawn) [Example 889, 3-[4-amino-5-(trifluoromethyl)pyrrolo[2,1-f][1,2,4]triazin-7-yl]-4-fluoro-N-[(3R,4S)-4-fluoro-1-[2-hydroxy-2-(trifluoromethyl)butanoyl]pyrrolidin-3-yl]benzamide]: 0.012 µM; for `Cc1cc(F)c(-c2cc(C(F)(F)F)c3c(N)ncnn23)cc1C(=O)N[C@@H]1CN(C(=O)[C@@](C)(O)C(F)(F)F)C[C@@H]1F` [Example 414, 5-[4-amino-5-(trifluoromethyl)pyrrolo[2,1-f][1,2,4]triazin-7-yl]-4-fluoro-N-[(3R,4S)-4-fluoro-1-[(2R)-3,3,3-trifluoro-2-hydroxy-2-methylpropanoyl]pyrrolidin-3-yl]-2-methylbenzamide]: 0.011 µM.
The value for `Nc1ncnn2c(-c3ccc(F)c(C(=O)N[C@@H]4CN(C(=O)C5CC(F)(F)C5)C[C@@H]4F)c3F)cc(C(F)(F)F)c12` [Example 727, 3-[4-amino-5-(trifluoromethyl)pyrrolo[2,1-f][1,2,4]triazin-7-yl]-N-[(3R,4S)-1-(3,3-difluorocyclobutanecarbonyl)-4-fluoropyrrolidin-3-yl]-2,6-difluorobenzamide] was 0.069 µM; that for `COCCC(=O)N1C[C@H](F)[C@H](NC(=O)c2cc(-c3cc(C(F)(F)F)c4c(N)ncnn34)cnc2OC)C1` [Example 340, 5-[4-amino-5-(trifluoromethyl)pyrrolo[2,1-f][1,2,4]triazin-7-yl]-N-[(3R,4S)-4-fluoro-1-(3-methoxypropanoyl)pyrrolidin-3-yl]-2-methoxypyridine-3-carboxamide] was 0.217 µM; that for `COc1ncc(-c2cc(C(F)(F)F)c3c(N)ncnn23)cc1C(=O)N[C@@H]1CN(Cc2ccc(F)cn2)C[C@@H]1F` [Example 464, 5-[4-amino-5-(trifluoromethyl)pyrrolo[2,1-f][1,2,4]triazin-7-yl]-N-[(3R,4S)-4-fluoro-1-[(5-fluoropyridin-2-yl)methyl]pyrrolidin-3-yl]-2-methoxypyridine-3-carboxamide] was 0.033 µM.
The value for `COc1ncc(-c2cc(CN3CCC(F)(F)CC3)c3c(N)ncnn23)cc1C(=O)NC1CN(C(=O)c2ccccc2F)CCC1F` (stereo not drawn) [Example 1664, 5-{4-amino-5-[(4,4-difluoropiperidin-1-yl)methyl]pyrrolo[2,1-f][1,2,4]triazin-7-yl}-N-[4-fluoro-1-(2-fluorobenzoyl)piperidin-3-yl]-2-methoxypyridine-3-carboxamide] was 0.076 µM; that for `COc1ncc(-c2cc(C(F)(F)F)c3c(N)ncnn23)cc1C(=O)Nc1nnc(Cc2ccccc2)o1` [Example 1685, 5-(4-amino-5-(trifluoromethyl)pyrrolo[2,1-f][1,2,4]triazin-7-yl)-N-(5-benzyl-1,3,4-oxadiazol-2-yl)-2-methoxynicotinamide] was 0.478 µM.
As for `Cc1ccc(C(=O)N2C[C@H](F)[C@H](NC(=O)c3cc(-c4cc(C(F)(F)F)c5c(N)ncnn45)c(F)cc3C)C2)nn1` [Example 866, 5-[4-amino-5-(trifluoromethyl)pyrrolo[2,1-f][1,2,4]triazin-7-yl]-4-fluoro-N-[(3R,4S)-4-fluoro-1-(6-methylpyridazine-3-carbonyl)pyrrolidin-3-yl]-2-methylbenzamide], the IC50 was found to be 0.347 µM.
Take `COc1ncc(-c2cc(C(F)(F)F)c3c(N)ncnn23)cc1C(=O)N[C@@H]1CN(C(=O)c2cc(F)ccc2F)C[C@@H]1F` [Example 341, 5-[4-amino-5-(trifluoromethyl)pyrrolo[2,1-f][1,2,4]triazin-7-yl]-N-[(3R,4S)-(2,5-difluoro-benzoyl)-4-fluoropyrrolidin-3-yl]-2-methoxypyridine-3-carboxamide, TFA]: the IC50 was found to be 0.011 µM.
For the compound `Nc1ncnn2c(-c3ccc(Cl)c(C(=O)N[C@@H]4CN(C(=O)c5ncccc5F)C[C@@H]4F)c3)cc(C(F)(F)F)c12` [Example 949, 5-[4-amino-5-(trifluoromethyl)pyrrolo[2,1-f][1,2,4]triazin-7-yl]-2-chloro-N-[(3R,4S)-4-fluoro-1-(3-fluoropyridine-2-carbonyl)pyrrolidin-3-yl]benzamide], the IC50 was found to be 0.063 µM.
The same measure for `[2H]C([2H])([2H])Oc1ncc(-c2cc(C(F)(F)F)c3c(N)ncnn23)cc1C(=O)N[C@@H]1CN(C(=O)CC(C)(C)O)C[C@@H]1F` [Example 385, 5-[4-amino-5-(trifluoromethyl)pyrrolo [2,1-f][1,2,4]triazin-7-yl]-N-[(3R,4S)-4-fluoro-1-(3-hydroxy-3-methyl-butanoyl)pyrrolidin-3-yl]-2-(deutero) methoxypyridine-3-carboxamide, TFA]: 0.291 µM; for `COc1ncc(-c2cc(C(F)(F)F)c3c(N)ncnn23)cc1NC(=O)c1cn(Cc2ccccc2)cn1` [Example 1772, N-(5-(4-amino-5-(trifluoromethyl)pyrrolo[2,1-f][1,2,4]triazin-7-yl)-2-methoxypyridin-3-yl)-1-benzyl-1H-imidazole-4-carboxamide]: 0.026 µM.
Consider `Cc1cc(F)c(-c2cc(C(F)(F)F)c3c(N)ncnn23)cc1C(=O)N[C@@H]1CN(C(=O)c2ccc(Cl)cn2)C[C@@H]1F` [Example 851, 5-[4-amino-5-(trifluoromethyl)pyrrolo[2,1-f][1,2,4]triazin-7-yl]-N-[(3R,4S)-1-(5-chloropyridine-2-carbonyl)-4-fluoropyrrolidin-3-yl]-4-fluoro-2-methylbenzamide], for which the IC50 amounted to 0.015 µM.
The value for `COc1ncc(-c2cc(CN3CCC(C(F)(F)F)CC3)c3c(N)ncnn23)cc1C(=O)N[C@@H]1CN(C(=O)C2CC(F)(F)C2)C[C@@H]1F` [Example 1597, 5-(4-amino-5-{[4-(trifluoromethyl)piperidin-1-yl]methyl}pyrrolo[2,1-f][1,2,4]triazin-7-yl)-N-[(3R,4S)-1-(3,3-difluorocyclobutanecarbonyl)-4-fluoropyrrolidin-3-yl]-2-methoxypyridine-3-carboxamide] was 0.0086 µM.
The value for `Nc1ncnn2c(-c3cc(C(=O)N[C@@H]4CN(C(=O)C5CCC(F)(F)C5)C[C@@H]4F)c(Cl)cc3F)cc(C(F)(F)F)c12` (stereo partly drawn) [Example 410, 5-[4-amino-5-(trifluoromethyl)pyrrolo[2,1-f][1,2,4]triazin-7-yl]-2-chloro-N-[(3R,4S)-1-(3,3-difluorocyclopentanecarbonyl)-4-fluoropyrrolidin-3-yl]-4-fluorobenzamide] was 0.0063 µM.
The same measure for `Cc1c(F)cc(-c2cc(C(F)(F)F)c3c(N)ncnn23)cc1C(=O)N[C@@H]1CN(C(=O)C2CC2(F)F)C[C@@H]1F` (stereo partly drawn) [Example 675, 5-[4-amino-5-(trifluoromethyl)pyrrolo[2,1-f][1,2,4]triazin-7-yl]-N-[(3R,4S)-1-(2,2-difluorocyclopropanecarbonyl)-4-fluoropyrrolidin-3-yl]-3-fluoro-2-methylbenzamide]: 0.0039 µM; for `COc1ncc(-c2cc(C(F)(F)F)c3c(N)ncnn23)cc1C(=O)N[C@H]1CCN(C(=O)CC(C)(C)C)C1` [Example 261, 5-[4-amino-5-(trifluoromethyl)pyrrolo[2,1-f][1,2,4]triazin-7-yl]-N-[(3S)-1-(3,3-dimethylbutanoyl)pyrrolidin-3-yl]-2-methoxypyridine-3-carboxamide]: 0.315 µM; for `CONCc1cc(-c2cnc(OC)c(C(=O)N[C@@H]3CN(C(=O)C4CC(F)(F)C4)C[C@@H]3F)c2)n2ncnc(N)c12` [Example 1714, 5-(4-amino-5-((methoxyamino)methyl)pyrrolo[2,1-f][1,2,4]triazin-7-yl)-N-((3R,4S)-1-(3,3-difluorocyclobutane-1-carbonyl)-4-fluoropyrrolidin-3-yl)-2-methoxynicotinamide]: 0.0078 µM.
As to `CCOCCN1CC(F)C(NC(=O)c2cc(-c3cc(C(F)(F)F)c4c(N)ncnn34)cnc2OC)C1` (racemic) [Example 192, 5-[4-amino-5-(trifluoromethyl)pyrrolo[2,1-f][1,2,4]triazin-7-yl]-N-[1-(2-ethoxyethyl)-4-fluoropyrrolidin-3-yl]-2-methoxypyridine-3-carboxamide], the IC50 was found to be 0.282 µM.
Consider `Cc1ncc(-c2cc(C(F)(F)F)c3c(N)ncnn23)cc1C(=O)N[C@@H]1CN(C(=O)C2CCC(F)(F)CC2)C[C@@H]1F` [Example 25, 5-[4-amino-5-(trifluoromethyl)pyrrolo[2,1-f][1,2,4]triazin-7-yl]-N-[(3R,4S)-1-(4,4-difluorocyclohexanecarbonyl)-4-fluoropyrrolidin-3-yl]-2-methylpyridine-3-carboxamide], for which the IC50 came to 0.071 µM.
The value for `Cc1nc(C)c(-c2cc(C(F)(F)F)c3c(N)ncnn23)cc1C(=O)N[C@@H]1CN(C(=O)CC(C(F)(F)F)C(F)(F)F)C[C@@H]1F` [Example 1193, 5-[4-amino-5-(trifluoromethyl)pyrrolo[2,1-f][1,2,4]triazin-7-yl]-N-[(3R,4S)-4-fluoro-1-[4,4,4-trifluoro-3-(trifluoromethyl)butanoyl]pyrrolidin-3-yl]-2,6-dimethylpyridine-3-carboxamide] was 0.029 µM; that for `COc1ncc(-c2cc(CN3CCC(F)(F)CC3)c3c(N)ncnn23)cc1C(=O)N[C@@H]1CN(C(=O)c2cnccc2C(F)(F)F)C[C@@H]1F` [Example 1255, 5-{4-amino-5-[(4,4-difluoropiperidin-1-yl)methyl]pyrrolo[2,1-f][1,2,4]triazin-7-yl}-N-[(3R,4S)-4-fluoro-1-[4-(trifluoromethyl)pyridine-3-carbonyl]pyrrolidin-3-yl]-2-methoxypyridine-3-carboxamide] was 0.0047 µM.

One may read the IC50 as the midpoint of a concentration-inhibition curve.
